The results in this text go back to ChEMBL document CHEMBL4888484, “Replenishing the malaria drug discovery pipeline: Screening and hit evaluation of the MMV Hit Generation Library 1 (HGL1) against asexual blood stage Plasmodium falciparum ,using a nano luciferase reporter read-out” (2022).

Out of some 150,000 compounds screened, about 540 (0.36%) showed an effect of 50% or more. This is one part of the list.

This assay concerns Plasmodium falciparum. The experiment in a line: Primary screen in NF54 nanoGlo assay, in single point, at 2uM, 72h; a lower Z score goes with more inhibition. To be noted: timepoint 72 hour. The class given is functional, Erythrocyte.
On to `O=C(Nc1nnc(CCS(=O)(=O)c2ccccc2)o1)c1ccco1`, for which the “% Inhibition” value is -8% and the Z score is on record as 1.57.
On to `CCN1C(=O)c2c(C(=O)NCc3ccc(OC(C)C)cc3)ncn2C[C@@]1(C)C(=O)NC1CCCC1`, for which the “% Inhibition” value is recorded as -10% and the Z score was found to be 1.94.
Turning to `CNS(=O)(=O)CC(=O)Nc1ccc2[nH]c(OC)nc2c1`, the “% Inhibition” value is given as -4% and the Z score was determined as 0.86.
As to `CCN1CC[C@@]2(CCC1=O)CN(C(=O)c1ccc(COC)s1)CCN2C`, the “% Inhibition” value was -2% and the Z score came to 0.35.
On to `CCC(=O)Oc1ccc(CNC(C)(C)C)cc1`, for which the “% Inhibition” value is given as -8% and the Z score was 1.3.
As for `Nn1c(CCOC(=O)c2ccccc2)nnc1CCOC(=O)c1ccccc1`, the “% Inhibition” value stood at 3% and the Z score is listed as -0.49.
The like results for `c1ccc(Cn2c(-c3ccccc3)cc3c2[C@@H](c2ccccc2)Oc2ccccc2-3)cc1` were, in that order, -3% and 0.46.
For the compound `CC(C)(C)OC(=O)N1CCC[C@H]1C(=O)N1CCCCCC1`, the “% Inhibition” value is recorded as -15% and the Z score was 1.75.
As for `Cc1ncc(C(=O)NCC(C)(C)N2CCOCC2)c(O)c1Cl`, the “% Inhibition” value is reported as -8% and the Z score came to 0.83.
As for `CCn1cc(CNC(=O)c2cc(C3CC3)nc3onc(-c4ccc(OC)cc4)c23)cn1`, the “% Inhibition” value stood at 31% and the Z score was -3.5.
For `C=CCOC1CCN(C(=O)CC(C)c2c(C)n[nH]c2C)C1` (centres undefined), the “% Inhibition” value was -13% and the Z score amounted to 1.68.
On the same counts, the results for `Cc1nccn1Cc1nnc(C2CCN(c3cccc(C#N)n3)CC2)n1C` are -12% and 1.16.
The like results for `O=C(Nc1ccccc1Cl)N1CCC(C2(O)CC2)CC1` were, in that order, 5% and -0.57.
The like results for `O=C1CCCN1Cc1ccc(Nc2ncnc3c2CCC3)cc1` were, in that order, -13% and 1.81.
As for `O=C(COc1ccc(-c2ccccc2)cc1)Nn1cnnc1`, the “% Inhibition” value is -9% and the Z score worked out at 1.04.
On to `O=C(c1cc(F)cc(F)c1)N1C[C@@H](CO)[C@H](c2ccncc2)C1`, for which the “% Inhibition” value came to 1% and the Z score was -0.19.
In the case of `O=C1OC[C@H]2CN(Cc3cc4c(cc3Cl)OCO4)CCN12`, the “% Inhibition” value is 0% and the Z score is given as 0.
As to `O=C(Nc1nc(-c2ccc3c(c2)OCCO3)cs1)c1cccc(-n2cnnn2)c1`, the “% Inhibition” value is listed as -15% and the Z score came to 2.17.
The like results for `Cc1nc2n(n1)C[C@@H](C(=O)N(CC(F)F)c1ccccc1)CC2` were, in that order, -11% and 1.58.
Turning to `CCn1c(C)ccc(C(=O)N2C[C@@H]3CC[C@H]2CN(S(=O)(=O)N(C)C)C3)c1=O`, the “% Inhibition” value is -4% and the Z score is on record as 0.71.
For `O=C(Nc1ccc(Cl)cc1)c1cc2n(n1)CCCN(Cc1ccc(F)cc1)C2=O`, the “% Inhibition” value is reported as -12% and the Z score worked out at 1.39.
On the same counts, the results for `CN(CCc1nc2ccccc2[nH]1)Cc1cc(=O)[nH]c(=O)[nH]1` are 3% and -0.6.
As for `CC(NC(=O)C(C)(C)C)C(=O)N(C)C1CCN(C)CC1C` (centres undefined), the “% Inhibition” value is -5% and the Z score is recorded as 0.58.
Turning to `Cc1ccc(CS(=O)(=O)N(C)Cc2nnc[nH]2)cc1F`, the “% Inhibition” value is -7% and the Z score was 1.13.
The like results for `COc1ccc(C(N)CC(O)Cc2cc(OC)c3c(c2OC)OCO3)cc1` (centres undefined) were, in that order, 5% and -0.62.
The like results for `NCc1cccc(C(=O)N2CCc3cc4ccc3[C@@H]2c2cccc(c2)OCCCNC(=O)c2cc(ccc2O)O4)c1` were, in that order, 86% and -13.81.
On the same counts, the results for `Cc1nccn1C1(C(=O)O)CCN(C(=O)c2cc3ccccc3[nH]2)CC1` are -6% and 0.73.
On to `N[C@H]1CC[C@@H](NC(=O)c2ccc3nc(-c4ccc(F)cc4)cn3c2)CC1`, for which the “% Inhibition” value is reported as -1% and the Z score was 0.13.
The like results for `COc1ccc(NC(=O)c2nnc([C@H]3CCCN(S(=O)(=O)c4c(C)n[nH]c4C)C3)s2)cc1` were, in that order, -3% and 0.46.
The like results for `CCc1cc(C(=O)Nc2ncc(C)[nH]2)[nH]n1` were, in that order, -3% and 0.36.
On the same counts, the results for `CN(C)c1ncc(NS(=O)(=O)c2ccc3c(c2)OCCO3)c(N(C)C)n1` are -15% and 1.92.
As for `Cc1cc(CNC(=O)Nc2cnc(N3CCCC[C@@H]3C)c(C)c2)on1`, the “% Inhibition” value worked out at 9% and the Z score was -1.19.
Take `CC(C)(NC(=O)C1CCc2cncn2C1)C(O)C(F)(F)F` (centres undefined): the “% Inhibition” value is on record as -6% and the Z score worked out at 0.72.
The like results for `O=C1CCc2cc(S(=O)(=O)N3CCC[C@H]3C(=O)NC3CCCCCCC3)ccc2N1` were, in that order, 5% and -0.58.
On the same counts, the results for `CC(=O)Nc1ccc(OC(=O)CCOc2ccc(F)cc2)cc1` are -9% and 1.41.
The like results for `OC1(CNc2nc3ccccc3s2)CCOCC1` were, in that order, -4% and 0.74.
With `O=C([C@@H]1CCCO1)N1CCCc2sccc2C1`, the “% Inhibition” value is recorded as -17% and the Z score was 1.56.
For the compound `COC(=O)CN1CCCN(c2nc3ccccc3o2)CC1`, the “% Inhibition” value is listed as -18% and the Z score came out at 2.32.
Take `O=C(Cc1c[nH]c2ccccc12)N1CCN(c2cc(-n3cncn3)ncn2)CC1`: the “% Inhibition” value was -11% and the Z score amounted to 1.77.
Take `CCn1c(CN2CCC[C@H](c3ccnn3C)C2)nc2c(F)cccc21`: the “% Inhibition” value was -11% and the Z score is reported as 2.25.
On the same counts, the results for `CCCOc1nc2ccccc2nc1N1CCC[C@H](C(=O)NCc2ccc(F)cc2)C1` are -6% and 1.19.
On to `Cc1ncn(CCC2CCOCC2)c1C`, for which the “% Inhibition” value is reported as 1% and the Z score is -0.11.
Consider `CC(=O)c1cccc(NC(=O)[C@H]2CC23CCOCC3)c1`, for which the “% Inhibition” value stood at 10% and the Z score is -1.61.
On the same counts, the results for `Cc1ccc(Br)c(C(=O)N[C@@]2(CCO)CCOC2)n1` are -1% and 0.25.
On the same counts, the results for `COc1ccc(OC)c(C2NC(c3cc(OC)ccc3OC)C(C)C(O)(c3ccc(F)cc3)C2C)c1` (centres undefined) are 9% and -1.19.
On to `Nc1c2c(-c3ccc(F)cc3)nc(NCCN3CCCCC3)nc2nn1-c1ccc(Cl)cc1`, for which the “% Inhibition” value is on record as -19% and the Z score is recorded as 1.69.
Turning to `O=C(CNc1cc(Cl)ccc1N1CCC(CO)CC1)N1CCOCC1`, the “% Inhibition” value was -9% and the Z score was found to be 1.65.
For `Cc1ccc2cc1Oc1cccc(c1)CO[C@H]1CCN(C(=O)CCc3nncn3C)C[C@H]1NC(=O)CN(C)C2=O`, the “% Inhibition” value is on record as -16% and the Z score is reported as 2.04.
The like results for `COc1cc(OC)cc(C(=O)N2CCCCC[C@H]2c2nnc(C)o2)c1` were, in that order, -6% and 1.14.
As for `CCN(C[C@H](C)C#N)C(=O)CNc1ccc(-c2nccc(C)n2)cc1`, the “% Inhibition” value is reported as -5% and the Z score was found to be 0.98.
The like results for `CCn1cnc2c(N3CCC=C(c4cccnc4)C3)ncnc21` were, in that order, -7% and 0.74.
The like results for `COc1ccc([C@@H](O)Cn2cnc(C(=O)NCCC3=CCCCC3)n2)cc1` were, in that order, 2% and -0.21.

A word on the % Inhibition: it is the relative decrease from the control value, in per cent.
